# Experimental data as given in the supplement of paper PMC10338343.
# ± gives the standard deviation. Only a part is listed here, and it is no random draw.
# Test system: MIWI (PIWIL1) piRISC loaded with L1MC piRNA (30 nt)
# Assay: pre-steady-state target cleavage rate (min^-1); MIWI and MILI are mouse PIWI proteins and EfPiwi is from a freshwater sponge; tags in brackets are library labels; higher = faster piRNA-guided slicing of the target
# Conditions: guide: L1MC piRNA 5'p-UAACUAAAUACUAUGCAAGCUGUAGGUCCU; auxiliary factor: 500 nM mouse GTSF1
# In short: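 A transcribed, DNA-blocked target RNA library […] was incubated at 33 °C for 0–8 or 0–960 min with 1 nM active affinity-purified piRISC carrying one synthetic guide, in HEPES–potassium acetate buffer with or without 500 nM GTSF1 partner protein. Uncleaved targets were then sequenced and normalised to depth and to weakly complementary targets. Data from three trials were pooled, with k3 capped at 0.0001 min^-1, and a burst-and-steady-state fit yielded the pre-steady-state cleavage rate.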
# 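Further: 1 nM active piRISC with 0.1 nM target library at 33 °C single turnover.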
row,Sequence,pre-steady-state target cleavage rate
1,UCCUCCUACAGCAUCCAUAGUAUUUAGUUA,0.168 ± 0.037
2,UCCUGGAACACGAUGCAUAGUAUUUAGUAA,0.0185 ± 0.0056
3,UCCUGGUACAGGAAGCAUAGUAUUUAGUAA,0.0592 ± 0.011
4,UCCACCUUCAGCUUGCAUAGUAUUUUCAAA,0.345 ± 0.049
5,UCGACCUACAGCUUGCAUAGUUUUUACAAA,0.239 ± 0.039
6,UCCUCCUACAGCAUGCAUAGUAUUUACAAA,0.47 ± 0.064
7,UCGACCUACAGCUUGCAUAGUAAAAAGAAA,0.252 ± 0.055
8,AGGACCUACAGCUUGCAUAGUUAUUAGAAA,0.359 ± 0.086
9,UCCUGGUACACCUUCCAUAGUAUUUAGUUA,0.00657 ± 0.0054
10,UCCACCUACAGCUUGCAUAGUAUAAACAAA,0.226 ± 0.034
11,UCCUCCUACAGCUUCCAUAGUAUUAAGUUA,0.0607 ± 0.022
12,UCCUGGAUGUCGUUGCAUAGUAUUAUAGUUA,0.00606 ± 0.0038

# Same assay, conditions: guide: L1MC piRNA 5'p-UAACUAAAUACUAUGCAAGCUGUAGGUCCU; auxiliary factor: none (no GTSF1)
row,Sequence,pre-steady-state target cleavage rate
1,UGGACCAUCAGCUUGCAUAGUAUUUAGUUA,0.101 ± 0.019
2,AGCUGCUACAGCUUGCAUAGUAUUUAGUUA,0.0697 ± 0.012
3,UCCUGGAUGUCGAACCAUAGAAUAUAGUUA,< 0.0001
4,UCCUGGAUGUCGAACGUAUCAAUUUAGUUU [g2:g9:cont:t1U],< 0.0001
5,UCCUGGAUGUCGAACCAUCAGUAUUUAGUUA,< 0.0001
